Test results published in the supplement of paper PMC10498489.
Among all 2,300 compounds or so, about 330 (14%) showed activity.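 Rule for the calls: active = median modified Z-score above 1.96; inactive = 1.96 or below.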 This is a selection; strong and weak results do not stand in their true shares.

system: HepG2 Srxn1-GFP reporter cells (+30 nM CDDO-Me); test: Srxn1-GFP intensity median modified Z-score relative to plate median; higher = stronger NRF2 / oxidative stress reporter activation, active = hit call of the paper; conditions: 10 µM; exposure time: 24h
Summary of the method: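 HepG2 Srxn1-GFP BAC reporter cells (20,000 per well, 96-well plates) were co-exposed to an NRF2 activator at 30 nM and compound at 10 μM (≤0.1% DMSO) for 24 h in three replicate plates. After formaldehyde fixation and Hoechst staining, confocal images were analysed per cell for cytoplasmic GFP, excluding images with under 100 cells. The value is the median over replicates of the per-plate modified Z-score of GFP intensity. Scaling used 1.4826 × median absolute deviation.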

Structure (SMILES) | Srxn1-GFP intensity median modified Z-score
CN1CCN(c2c(F)cc3c(=O)c(C(=O)O)cn4c3c2SCC4)CC1 [euspeclibcmpd1298] | inactive: 0.0815
Cc1ccc(NC(=O)c2ccc(CN3CCN(C)CC3)cc2)cc1N=c1nc(-c2cccnc2)cc[nH]1 [euspeclibcmpd1311] | active: 4.53
O=C(O)c1cccnc1C(=O)O [euspeclibcmpd2013] | inactive: -0.445
CC(=O)Nc1ccc(C(=O)O)cc1 [euspeclibcmpd1101] | inactive: 0.636
CCOc1ccc(NC(C)=O)cc1 [euspeclibcmpd324] | inactive: 0.0574
CN1CCC[C@@H]1CCO[C@](C)(c1ccccc1)c1ccc(Cl)cc1 [euspeclibcmpd66] | inactive: 0.909
CCOC(=O)[N-]c1c[n+](N2CCOCC2)no1 [euspeclibcmpd1299] | inactive: -0.135
CC[N+](CC)(CC)CCOc1cccc(OCC[N+](CC)(CC)CC)c1OCC[N+](CC)(CC)CC [euspeclibcmpd137] | inactive: -0.0661
CC(C)(C)NCC(O)c1cc(O)cc(O)c1 (configuration not stated) [euspeclibcmpd286] | inactive: -0.0995
COc1cc(OC)c(-c2c(OC)cc(OC)cc2OC)c(OC)c1 [euspeclibcmpd1350] | inactive: -0.437
O=C(O)C(O)[C@@](O)(Cc1ccc(O)cc1)C(=O)O (some centres not stated) [euspeclibcmpd1612] | inactive: -0.288
CC/C(=C(\c1ccccc1)c1ccc(OCCN(C)C)cc1)c1ccccc1 [euspeclibcmpd285] | active: 43.4
CCc1oc2ccccc2c1C(=O)c1cc(Br)c(O)c(Br)c1 [euspeclibcmpd888] | active: 2.7
COc1cc2oc3cc(OC)c(OC)c(CC=C(C)C)c3c(=O)c2c(OC)c1CC=C(C)C [euspeclibcmpd1951] | active: 13.2
NCc1ccc(S(N)(=O)=O)cc1 [euspeclibcmpd173] | inactive: -0.643
O=c1c(O)c(-c2ccc(O)c(O)c2)oc2cc(O)cc(O)c12 [euspeclibcmpd1479] | inactive: -0.225
CC1CCCC(C)N1 (configuration not stated) [euspeclibcmpd2195] | inactive: -0.415
COCCc1ccc(OCC(O)CNC(C)C)cc1 (configuration not stated) [euspeclibcmpd198] | inactive: 0.381
CC(C)(C)NC[C@H](O)COc1ccccc1C1CCCC1 [euspeclibcmpd818] | inactive: -0.464
COc1ccc(C(=O)c2ccccc2O)c(O)c1 [euspeclibcmpd100] | inactive: 1.63
CC(C)Cc1ccc(C(C)C(=O)O)cc1 (configuration not stated) [euspeclibcmpd2142] | inactive: -0.249
COc1ccc(CN2CCN(C(c3ccc(F)cc3)c3ccc(F)cc3)CC2)c(OC)c1OC [euspeclibcmpd1081] | inactive: -0.38
